Laboratory results: the supplement of paper PMC12067230
The data scatter; read single values as rough.

assay: amyloid nucleation score relative to library mode (yeast Sup35 reporter selection) (log enrichment difference); higher = more amyloid nucleation; sequences are the first 22 residues of the Bri2 peptide extended by up to 12 random residues; details: random library (experiment): 1;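 active = nucleation score significantly above 0 at FDR 0.05; inactive = not significantly above 0 or absent from output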
Description: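 Random C-terminal extensions of the 22-aa Bri2 peptide by 12 NNK codons; premature stops give shorter extensions. Peptides were fused to the Sup35 nucleation domain in S. cerevisiae [psi-pin-] and selected on -ADE-URA plates for 7 d at 30 °C. The nucleation score is log(output/input), centred to the mode of each of 3 independent libraries (1 input, 3 technical output replicates), with duplicates merged. Sequences absent from the output ('random_non_nuc') were imputed with the library mode value, so they are given as censored (<). Nucleators are scores significantly >0 at FDR 0.05.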
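Also: [psi-pin-] Saccharomyces cerevisiae expressing SupN fusions, induced by 100 µM Cu2SO4, selected 7 d at 30 °C without adenine and uracil, scored by deep sequencing of output versus input.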

Row | Sequence | amyloid nucleation score
1 | EASNCFAIRHFENKFAVETLICDLMVGWYGLHLL | inactive
2 | EASNCFAIRHFENKFAVETLICFLKF | inactive
3 | EASNCFAIRHFENKFAVETLICPILKWLQYGAGA | inactive
4 | EASNCFAIRHFENKFAVETLICFLM | 6.24
5 | EASNCFAIRHFENKFAVETLICRTLSGHEQYRCS | inactive
6 | EASNCFAIRHFENKFAVETLICINHHHFRRLRCG | 1.38
7 | EASNCFAIRHFENKFAVETLICKK | inactive
8 | EASNCFAIRHFENKFAVETLICGWTRKRALNRWT | inactive
9 | EASNCFAIRHFENKFAVETLICWGQEISAARRLW | 4.66
10 | EASNCFAIRHFENKFAVETLICFSMVVRSDWTGT | 4.25
11 | EASNCFAIRHFENKFAVETLICCGAQALGNGRTL | 7.21
12 | EASNCFAIRHFENKFAVETLICMSTVWHTLFVVI | inactive
13 | EASNCFAIRHFENKFAVETLICGCS | inactive
14 | EASNCFAIRHFENKFAVETLICWSEMIQVEGLAL | 3.43
15 | EASNCFAIRHFENKFAVETLICVFCLHPRLVVAW | inactive
16 | EASNCFAIRHFENKFAVETLICRVSVPACGVTEW | inactive
17 | EASNCFAIRHFENKFAVETLICIARFHHSRSTRR | inactive
18 | EASNCFAIRHFENKFAVETLICHGCCKSEYYME | 6.8
19 | EASNCFAIRHFENKFAVETLICRSTSWELYRGSR | 2.5
20 | EASNCFAIRHFENKFAVETLICCGAQVLWLWKVS | 7.5
21 | EASNCFAIRHFENKFAVETLICLVCDWEVNAVTG | 7.16
22 | EASNCFAIRHFENKFAVETLICKLMSMCERGTCC | inactive
23 | EASNCFAIRHFENKFAVETLICNKA | inactive
24 | EASNCFAIRHFENKFAVETLICTWSQIYSRSRRG | 2.18

same assay, conditions: random library (experiment): 2

Row | Sequence | amyloid nucleation score
25 | EASNCFAIRHFENKFAVETLICLVPYYEFCIMAW | 0.58
26 | EASNCFAIRHFENKFAVETLICCIFLYSHQCSDA | 4.33
27 | EASNCFAIRHFENKFAVETLICFLKTCNISRQDH | inactive
28 | EASNCFAIRHFENKFAVETLICFLVYCQTSEPYV | 3.81
29 | EASNCFAIRHFENKFAVETLICYRY | 4.03
30 | EASNCFAIRHFENKFAVETLICCESFPFYSLQPA | inactive
31 | EASNCFAIRHFENKFAVETLICASVVVTYSGSTS | 5.1
32 | EASNCFAIRHFENKFAVETLICYPV | inactive
33 | EASNCFAIRHFENKFAVETLICEIMYGF | inactive
34 | EASNCFAIRHFENKFAVETLICFRGMS | 1.74
35 | EASNCFAIRHFENKFAVETLICIFRASRISVLSL | inactive

same assay, conditions: random library (experiment): 3

Row | Sequence | amyloid nucleation score
36 | EASNCFAIRHFENKFAVETLICNDGLC | -0.334
37 | EASNCFAIRHFENKFAVETLICGAPGCRPRLDCV | inactive
38 | EASNCFAIRHFENKFAVETLICLDSFGRIWTQKA | 3.41
39 | EASNCFAIRHFENKFAVETLICPDETGSRVGCSG | inactive
40 | EASNCFAIRHFENKFAVETLICRTWVGGCCDMVR | inactive
41 | EASNCFAIRHFENKFAVETLICCNYL | 9.1
42 | EASNCFAIRHFENKFAVETLICGRTWVPH | 3
43 | EASNCFAIRHFENKFAVETLICTEMVGLVRLGEG | inactive
44 | EASNCFAIRHFENKFAVETLICASPPGAAKADSR | inactive
45 | EASNCFAIRHFENKFAVETLICPCRMELWKVPGW | inactive
46 | EASNCFAIRHFENKFAVETLICCTYAINTIRVSR | 6.71
47 | EASNCFAIRHFENKFAVETLICGMYELTLELTEI | inactive
48 | EASNCFAIRHFENKFAVETLICLIMAVVHRGHKK | inactive
